Source: the supplement of paper PMC3334620
Over roughly 33,000 sequences, “E-score (-0.5 to 0.5)” has its median near -0.016; the highest 2% begin near 0.31. Some of the results follow.

Each sequence was assayed against Cst6 (UniProt P40535) (assay: PBM E-score (8-mer binding enrichment) (E-score (-0.5 to 0.5)); higher = stronger / more preferred TF binding; most listed sequences are background and not binding sites). Conditions: protein concentration: 200 nM; construct: GST-DNA-binding domain.
Procedure: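 Universal 'all 10-mer' protein binding microarrays (Agilent AMADID 015681) probed with GST-tagged S. cerevisiae TFs (full-length or DBD) made by in vitro transcription/translation (PURExpress), about 100-200 nM. Bound TF was detected with fluorescent anti-GST. Each ungapped 8-mer (which stands for itself and its reverse complement) is scored by the PBM enrichment score (E-score), a modified Wilcoxon-Mann-Whitney statistic from -0.5 to +0.5, computed with the Universal PBM Analysis Suite. Scale: above 0.35 generally sequence-specific binding.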

Sequence | PBM E-score
ACCAATAA | 0.216
CTGCGTAA | 0.195
CTTTTGCA | 0.175
CCTTATCG | 0.0828
GCTTCGCC | -0.307
AGGTACGC | -0.097
AGCCGAAT | 0.0133
AACGCTGG | -0.131
ACGTATTC | 0.285
CATATCAA | 0.256
GGCCCCAA | -0.149
CGCTAGGC | -0.174
AAGATAGA | -0.0664
CAGGTATA | 0.102
ACTTGCGG | -0.281
ACCAGCTG | -0.278
TACGTACA | 0.336
AAGTCAGG | -0.165
ATCCTCTA | -0.185
GGTAAGAA | -0.11
ATTTTCAG | 0.196
TCGACAAA | 0.128

Sequence | PBM E-score
GCTAGCCC | -0.229
CACGCGGG | -0.0196
CGAGGCTC | -0.0398
CTAGCGGA | -0.264
GTAAACCA | -0.0463
ATTCGTAG | 0.0897
CTCCCCAC | -0.201
AGTAATGC | 0.0951
AACCGAGA | -0.00338
AGATGCAT | -0.0176
CAACTCAG | -0.0943
ACCTTACG | 0.164
GGATATTA | 0.14
AGGAGACC | -0.335
CGTGTGCC | 0.0208
GCAGCCCC | -0.349
ATGGCGCG | 0.043
CCGTGCGC | 0.116
AACGTCGG | -0.174
ATAGCTTA | 0.123
CATGATGC | 0.28
ATGGCTAG | -0.0587

Sequence | PBM E-score
GCGACCGA | -0.00726
AACTTCCC | -0.089
GGGTTAAA | -0.06
AATGGAGC | 0.0703
GGTCCGAC | -0.108
CAGTTTCG | 0.0709
CTTCTGTA | 0.102
CCTCCCCG | -0.0606
TAACCGCA | 0.242
AGGAATTA | 0.192
CGATCAAA | -0.0394
ATGCTTGG | -0.102
CTACGAGA | -0.168
ATCGATCC | -0.0396
CATGCGCG | 0.0648
AAGAAGTC | -0.0391
AGAAGAGA | -0.0909
ATTTTTCA | 0.197
AACTCGTA | 0.0444
CGCTCTGC | -0.0673
ATTTCCTC | 0.148
CATAGCGG | -0.261

Sequence | PBM E-score
GCCGCGGC | 0.31
AACGCACA | 0.0324
ATCATGGA | 0.0954
CGAGAAAG | 0.0759
AAGTTTGC | 0.092
CGAGCAGA | -0.24
AAAAACTT | 0.19
CCTGCTCC | -0.172
AATCATGA | 0.338
TCAAGACA | 0.0551
AGTTTGGC | -0.0468
AATAAAAG | 0.177
CCAAGTCA | -0.139
GGGACTCA | -0.353
TCGCACGA | 0.0411
CAGATTCG | -0.0278
CCAGACCC | -0.328
ACCAGATG | -0.0797
CCGAGGGA | -0.373
CGGGCCCC | -0.311
GGTGACAC | 0.163
AGGCGCCA | 0.0572

Sequence | PBM E-score
CTGTGGGA | -0.218
GCGATAGC | -0.113
TAGAGAAA | -0.0379
CTAATTTC | 0.128
CAAATACA | 0.275
GCTTCATA | 0.0223
AAGCAAAA | 0.17
CACACGGG | -0.0293
CAGCTCCA | -0.232
AATACAAG | 0.118
CCGCCCCC | -0.373
CTCGAAAC | 0.0781
CAAACAGG | -0.0882
CAGCGGGC | -0.0805
ACACTCGT | 0.0529
CTCATCTA | -0.113
TACCGGGA | -0.179
AGTACAGA | -0.039
AACATTAA | 0.157
CGAATCAG | 0.0436
ACCGCATC | 0.0649
